In test [1] the target is T1, GST-tagged VPS18 RING domain (residues 842–973) (human) (UniProt Q9P253).
T1 sequence: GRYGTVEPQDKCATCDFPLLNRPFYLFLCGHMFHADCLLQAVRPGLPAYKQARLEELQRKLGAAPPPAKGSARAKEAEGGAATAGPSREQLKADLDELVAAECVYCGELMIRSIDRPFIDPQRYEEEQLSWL
The experiment in a line: pull-down; 0.5 nmol purified GST-tagged bait on magnetic glutathione beads; prey myc-tagged, wheat germ cell-free expression reaction; 4°C, 60 min; 20 mM Tris, 200 mM NaCl, 0.1% NP-40, 1 mM DTT, 1 mM EDTA; anti-myc immunoblot; only the target purified.

The target in test [2] is T2, GST-tagged VPS41 RING domain (residues 778–854) (human) (UniProt P49754).
T2 sequence: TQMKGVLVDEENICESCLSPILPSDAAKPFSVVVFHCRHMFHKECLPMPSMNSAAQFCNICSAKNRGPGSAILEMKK
Described as above.

No constants are given. Whether binding was seen depends on the method and setting. Binding seen in cells or lysates may run through a third protein. Sequences can lack the tags named with a protein.

B1: myc-tagged full-length VPS16 (protein, UniProt Q9H269 1-839)
chain: MDCYTANWNPLGDSAFYRKYELYSMDWDLKEELRDCLVAAAPYGGPIALLRNPWRKEKAASVRPVLDIYSASGMPLASLLWKSGPVVSLGWSAEEELLCVQEDGAVLVYGLHGDFRRHFSMGNEVLQNRVLDARIFHTEFGSGVAILTGAHRFTLSANVGDLKLRRMPEVPGLQSAPSCWTVLCQDRVAHILLAVGPDLYLLDHAACSAVTPPGLAPGVSSFLQMAVSFTYRHLALFTDTGYIWMGTASLKEKLCEFNCNIRAPPKQMVWCSRPRSKERAVVVAWERRLMVVGDAPESIQFVLDEDSYLVPELDGVRIFSRSTHEFLHEVPAASEEIFKIASMAPGALLLEAQKEYEKESQKADEYLREIQELGQLTQAVQQCIEAAGHEHQPDMQKSLLRAASFGKCFLDRFPPDSFVHMCQDLRVLNAVRDYHIGIPLTYSQYKQLTIQVLLDRLVLRRLYPLAIQICEYLRLPEVQGVSRILAHWACYKVQQKDVSDEDVARAINQKLGDTPGVSYSDIAARAYGCGRTELAIKLLEYEPRSGEQVPLLLKMKRSKLALSKAIESGDTDLVFTVLLHLKNELNRGDFFMTLRNQPMALSLYRQFCKHQELETLKDLYNQDDNHQELGSFHIRASYAAEERIEGRVAALQTAADAFYKAKNEFAAKATEDQMRLLRLQRRLEDELGGQFLDLSLHDTVTTLILGGHNKRAEQLARDFRIPDKRLWWLKLTALADLEDWEELEKFSKSKKSPIGYLPFVEICMKQHNKYEAKKYASRVGPEQKVKALLLVGDVAQAADVAIEHRNEAELSLVLSHCTGATDGATADKIQRARAQAQKK
B1: the binding result in test [1] and in test [2] was “no binding” throughout.

B2: myc-tagged full-length VPS33A (protein, UniProt Q96AX1 1-596)
chain: MAAHLSYGRVNLNVLREAVRRELREFLDKCAGSKAIVWDEYLTGPFGLIAQYSLLKEHEVEKMFTLKGNRLPAADVKNIIFFVRPRLELMDIIAENVLSEDRRGPTRDFHILFVPRRSLLCEQRLKDLGVLGSFIHREEYSLDLIPFDGDLLSMESEGAFKECYLEGDQTSLYHAAKGLMTLQALYGTIPQIFGKGECARQVANMMIRMKREFTGSQNSIFPVFDNLLLLDRNVDLLTPLATQLTYEGLIDEIYGIQNSYVKLPPEKFAPKKQGDGGKDLPTEAKKLQLNSAEELYAEIRDKNFNAVGSVLSKKAKIISAAFEERHNAKTVGEIKQFVSQLPHMQAARGSLANHTSIAELIKDVTTSEDFFDKLTVEQEFMSGIDTDKVNNYIEDCIAQKHSLIKVLRLVCLQSVCNSGLKQKVLDYYKREILQTYGYEHILTLHNLEKAGLLKPQTGGRNNYPTIRKTLRLWMDDVNEQNPTDISYVYSGYAPLSVRLAQLLSRPGWRSIEEVLRILPGPHFEERQPLPTGLQKKRQPGENRVTLIFFLGGVTFAEIAALRFLSQLEDGGTEYVIATTKLMNGTSWIEALMEKPF
As to B2, the binding entry in test [1] and in test [2] was “no binding” each time.

B3: myc-tagged full-length VPS39 (protein, UniProt Q96JC1-2 1-875)
chain: MHDAFEPVPILEKLPLQIDCLAAWEEWLLVGTKQGHLLLYRIRKDVGCNRFEVTLEKSNKNFSKKIQQIHVVSQFKILVSLLENNIYVHDLLTFQQITTVSKAKGASLFTCDLQHTETGEEVLRMCVAVKKKLQLYFWKDREFHELQGDFSVPDVPKSMAWCENSICVGFKRDYYLIRVDGKGSIKELFPTGKQLEPLVAPLADGKVAVGQDDLTVVLNEEGICTQKCALNWTDIPVAMEHQPPYIIAVLPRYVEIRTFEPRLLVQSIELQRPRFITSGGSNIIYVASNHFVWRLIPVPMATQIQQLLQDKQFELALQLAEMKDDSDSEKQQQIHHIKNLYAFNLFCQKRFDESMQVFAKLGTDPTHVMGLYPDLLPTDYRKQLQYPNPLPVLSGAELEKAHLALIDYLTQKRSQLVKKLNDSDHQSSTSPLMEGTPTIKSKKKLLQIIDTTLLKCYLHTNVALVAPLLRLENNHCHIEESEHVLKKAHKYSELIILYEKKGLHEKALQVLVDQSKKANSPLKGHERTVQYLQHLGTENLHLIFSYSVWVLRDFPEDGLKIFTEDLPEVESLPRDRVLGFLIENFKGLAIPYLEHIIHVWEETGSRFHNCLIQLYCEKVQGLMKEYLLSFPAGKTPVPAGEEEGELGEYRQKLLMFLEISSYYDPGRLICDFPFDGLLEERALLLGRMGKHEQALFIYVHILKDTRMAEEYCHKHYDRNKDGNKDVYLSLLRMYLSPPSIHCLGPIKLELLEPKANLQAALQVLELHHSKLDTTKALNLLPANTQINDIRIFLEKVLEENAQKKRFNQVLKNLLHAEFLRVQEERILHQQVKCIITEEKVCMVCKKKIGNSAFARYPNGVVVHYFCSKEVNPADT
With B3, the binding result in test [1] and in test [2] was “no binding” in each case.

The record behind these values is publication PMC5651818, “VPS18 recruits VPS41 to the human HOPS complex via a RING–RING interaction” (Biochemical Journal, 2017).
